# Data published in the supplement of paper PMC3334620.
# The full ranking holds about 33,000 sequences; the median of “E-score (-0.5 to 0.5)” is about -0.032, and the highest 2% start at about 0.36. This is one part of the list.
# Molecular target: T1, Sko1 (UniProt Q02100)
# T1 sequence: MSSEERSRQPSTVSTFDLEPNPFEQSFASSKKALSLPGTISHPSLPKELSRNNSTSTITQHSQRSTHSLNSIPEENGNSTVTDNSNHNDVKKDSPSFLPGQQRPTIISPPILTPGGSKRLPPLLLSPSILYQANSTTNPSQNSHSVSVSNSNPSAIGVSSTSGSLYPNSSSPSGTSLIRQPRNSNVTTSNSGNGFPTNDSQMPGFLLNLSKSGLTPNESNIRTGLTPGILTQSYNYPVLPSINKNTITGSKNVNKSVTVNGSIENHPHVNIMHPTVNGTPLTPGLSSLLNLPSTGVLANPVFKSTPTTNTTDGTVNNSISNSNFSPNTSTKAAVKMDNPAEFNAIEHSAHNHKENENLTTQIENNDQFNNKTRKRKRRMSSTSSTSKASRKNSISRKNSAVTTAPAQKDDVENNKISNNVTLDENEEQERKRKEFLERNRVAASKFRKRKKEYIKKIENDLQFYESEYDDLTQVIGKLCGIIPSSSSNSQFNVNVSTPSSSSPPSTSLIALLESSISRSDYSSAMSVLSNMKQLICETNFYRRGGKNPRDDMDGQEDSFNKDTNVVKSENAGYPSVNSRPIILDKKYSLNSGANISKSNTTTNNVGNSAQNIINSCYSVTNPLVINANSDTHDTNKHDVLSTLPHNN
# Experiment: PBM E-score (8-mer binding enrichment) (E-score (-0.5 to 0.5)); higher = stronger / more preferred TF binding; most listed sequences are background and not binding sites
# Conditions: protein concentration: 200 nM; construct: GST-full length
# Procedure, shortened: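 Masliner-normalised scans of fluorescent anti-GST signal were the basis for scoring. That signal came from GST-tagged yeast transcription factors applied at about 100-200 nM to double-stranded universal all-10-mer Agilent arrays on fresh or once-stripped slides. Each ungapped eight-base word, pooled with its reverse complement, received an E-score from the Universal PBM Analysis Suite.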
row,Sequence,PBM E-score
1,CCCGCTCC,-0.312
2,CAGGCACG,-0.0439
3,AGATTGGC,-0.0878
4,AAGGCCGC,-0.133
5,CTTGATTA,0.0169
6,ATAGAGTG,-0.0804
7,CTATATCA,0.0782
8,AAATTCGG,-0.0392
9,GGTGGACA,-0.241
10,AAAATGTA,0.146
11,ACGTTCGA,0.248
12,AGATGAAC,0.0859
13,ATGACCAG,-0.0544
14,CAGGATAC,0.0384
15,TAGGGAAA,0.0498
16,CTGTGTAA,0.148
17,AATCATAT,0.21
18,AAGCCTCC,-0.294
19,GTGACAAC,0.183
20,CTTTCATA,0.257
21,CCGGCGCC,-0.138
22,AAAATAGG,0.0674
23,GAGATGAA,-0.00284
24,GCTAGAGA,-0.0277
25,ACGGTTCG,-0.214

row,Sequence,PBM E-score
1,GAAAGACC,-0.261
2,CGACTCTC,-0.231
3,TACACAAA,0.206
4,CCGCCAAA,-0.0781
5,AACTACAC,0.231
6,CCACCCAG,-0.209
7,AATAGCTA,0.154
8,GGGGTAGA,-0.0788
9,GCTCTTAA,-0.0131
10,CCTGTGAA,0.0504
11,GATAGTCA,-0.045
12,GTATGGAA,0.00841
13,ATCTATAA,0.199
14,AAAGCATA,0.147
15,CATATTCC,-0.0554
16,CAGGTACA,-0.0464
17,GGGCTCCA,-0.295
18,ATGTACAC,0.202
19,CCCGGGGC,-0.329
20,CCCTGACG,0.191
21,GAACCATC,-0.0679
22,CACGCGGA,-0.00935
23,AACTCAGT,-0.155
24,GCGGATAA,-0.105
25,GACCAAAA,0.112

row,Sequence,PBM E-score
1,GGATTCAC,-0.215
2,ATTGGCTG,-0.05
3,AGGCCTCC,-0.309
4,CGGCTCAA,-0.146
5,TCACCTCA,0.236
6,TATTGTAA,0.0735
7,AGCCCTAG,-0.134
8,GCTAACCA,-0.251
9,CGTGATGA,0.36
10,ATGCTAAT,0.209
11,CATTAAAA,0.16
12,CGCCGGGC,-0.215
13,GGAGGCCC,-0.241
14,AAGTCGCT,-0.133
15,GAGCTTAC,-0.0218
16,CTTCGAGC,-0.0643
17,AAAATCTC,-0.0523
18,GCCAAGAC,-0.0143
19,CTGACCAC,-0.151
20,ATTCGCCA,0.0648
21,CCAAACTC,-0.0112
22,AACGCTCG,0.139
23,CGACCTAC,-0.0588
24,ACCCGCGC,0.0645
25,GATGGGGC,-0.179

row,Sequence,PBM E-score
1,GGCCTACA,-0.116
2,AAAATCGC,0.0693
3,CGGGGAAC,-0.209
4,CCGTACAG,-0.22
5,GTTACTAA,0.263
6,CTGTTCGC,-0.00955
7,CTGGGGTA,-0.251
8,GCCCACCC,0.0115
9,ATACCGTA,0.162
10,CTTAGATA,0.141
11,GTCGGGTA,-0.0683
12,GGGTCTAA,-0.21
13,AATCGCCT,-0.0272
14,ATGGCCAT,-0.253
15,GTTGTGAA,0.208
16,ACGGGAAT,-0.0502
17,CTATTGTC,-0.0945
18,TCCTCTCA,-0.105
19,GATGGAAA,0.0551
20,ACCAAGTA,0.0459
21,ACGGCAGG,-0.297
22,ATTTACTA,0.117
23,GTATATGA,0.269
24,GGGTTCAA,-0.166
25,ATTTTTCG,0.164

row,Sequence,PBM E-score
1,CCGGATAA,-0.0431
2,GTTGGAGA,-0.00906
3,CTCTCCCA,-0.407
4,ACGATAGG,-0.198
5,AGAGTAAC,-0.0287
6,GACGTTAA,0.368
7,TCAACTAA,0.138
8,GTCTGGCA,-0.208
9,AACTTAGG,0.00099
10,GGGTGCGA,-0.23
11,TGTTCAAA,0.0209
12,AGGTGTCA,0.0726
13,CCGAAAAA,0.128
14,CCATACAA,0.0328
15,GTTCAGGA,-0.0181
16,AAAAATCA,0.0972
17,GAGACGAC,-0.0563
18,CAAATTAC,0.258
19,CTTAGGAA,0.0777
20,ACCCGAAG,-0.229
21,CACTTTCC,-0.0386
22,GCGTTAGC,0.0592
23,ACCGTAGT,-0.122
24,TGTGTAAA,0.266
25,ATGAATTC,0.0634

row,Sequence,PBM E-score
1,AAACCCAA,0.026
2,CAATCACA,0.153
3,AACAATCA,0.297
4,ATCATAGG,0.18
5,AGAGGCCA,-0.195
6,GACTCCTC,-0.315
7,AGTGCGAG,-0.108
8,TCGTCTAA,0.101
9,CCGGGATC,-0.193
10,ATCGTGGG,0.114
11,TGTCCCAA,-0.00701
12,AGCCCGAT,0.0246
13,ATAGTCTG,-0.0553
14,CGTATCTC,0.26
15,AGCGGTAA,-0.112
16,AGTTAGCA,0.0512
17,ACTATACG,0.27
18,ATAGGCAC,0.0356
19,ACAATAGG,-0.097
20,ACCAGAGG,-0.225
21,AATGCATA,0.0709
22,AATAAAGA,0.201
23,CACAGCCC,-0.316
24,CAAACCGA,-0.0133
25,GTGAAGGA,-0.0285

row,Sequence,PBM E-score
1,ATGAACAC,0.0929
2,ACGAAAAT,0.331
3,AAAAATTT,0.177
4,GCAAAGAA,-0.123
5,ATACGATG,0.275
6,AGGGCAAG,-0.141
7,GCTTCGCA,-0.0198
8,AACAGGGG,-0.349
9,GAGCGAGC,0.0109
10,ACGTATGG,0.441
11,ACTTCAAG,0.15
12,ACTGTCTA,0.161
13,ACTCTCAG,-0.00339
14,GACAAGCC,-0.128
15,ACCCTGCT,-0.326
16,CGTCGACA,0.205
17,CATACAAG,0.0813
18,GGAATTAA,0.2
19,GGTCAGAA,-0.206
20,CCGGAAAC,-0.069
21,CCATGAGC,-0.178
22,CTCCGAAC,-0.214
